Results: paper PMC4336329 (PLoS ONE, 2015)
About 14,000 (4.5%) of roughly 310,000 compounds showed an effect of 50% or more. Effects have a minus sign here. The list shows a part of the results.
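Note: peak tail current of the secondary pulse compared with the same well before compound.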

What follows are compounds tested against human ether-à-go-go-related gene (hERG) potassium channel (human, UniProt Q12809) (assay: primary screen, population patch clamp on CHO cells stably expressing hERG).
Chain of human ether-à-go-go-related gene (hERG) potassium channel (Q12809 whole entry, looked up): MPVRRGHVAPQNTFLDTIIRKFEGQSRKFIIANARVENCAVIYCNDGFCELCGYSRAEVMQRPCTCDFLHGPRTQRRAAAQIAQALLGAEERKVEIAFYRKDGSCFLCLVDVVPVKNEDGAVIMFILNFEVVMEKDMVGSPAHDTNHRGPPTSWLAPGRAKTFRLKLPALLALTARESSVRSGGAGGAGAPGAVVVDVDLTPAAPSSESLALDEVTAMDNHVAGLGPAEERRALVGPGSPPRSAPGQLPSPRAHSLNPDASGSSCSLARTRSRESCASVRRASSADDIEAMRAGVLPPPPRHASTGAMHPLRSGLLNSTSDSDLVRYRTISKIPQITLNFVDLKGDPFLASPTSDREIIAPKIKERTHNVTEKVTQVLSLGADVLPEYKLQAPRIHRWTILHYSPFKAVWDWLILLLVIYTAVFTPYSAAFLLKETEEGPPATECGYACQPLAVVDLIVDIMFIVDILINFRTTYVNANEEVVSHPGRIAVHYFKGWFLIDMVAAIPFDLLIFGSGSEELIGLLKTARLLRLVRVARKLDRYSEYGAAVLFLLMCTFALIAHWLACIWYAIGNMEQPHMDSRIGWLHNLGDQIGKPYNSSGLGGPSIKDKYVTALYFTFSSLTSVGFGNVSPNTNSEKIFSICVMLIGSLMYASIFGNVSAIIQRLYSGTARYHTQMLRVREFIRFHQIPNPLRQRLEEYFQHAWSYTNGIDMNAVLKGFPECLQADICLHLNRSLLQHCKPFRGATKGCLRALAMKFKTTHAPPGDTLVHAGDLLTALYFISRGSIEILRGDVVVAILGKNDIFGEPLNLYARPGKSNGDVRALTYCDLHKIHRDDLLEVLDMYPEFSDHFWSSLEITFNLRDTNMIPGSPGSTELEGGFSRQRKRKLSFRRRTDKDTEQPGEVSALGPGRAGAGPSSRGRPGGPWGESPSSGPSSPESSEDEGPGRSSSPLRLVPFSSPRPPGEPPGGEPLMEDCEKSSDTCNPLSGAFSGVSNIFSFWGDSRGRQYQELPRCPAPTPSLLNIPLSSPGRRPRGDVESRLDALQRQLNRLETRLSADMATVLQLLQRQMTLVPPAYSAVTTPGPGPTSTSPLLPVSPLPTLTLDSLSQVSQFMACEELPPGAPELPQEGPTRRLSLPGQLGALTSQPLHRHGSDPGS
For `O=c1c2ccccc2nc2n1CCS2`, the “hERG current change (%, negative = inhibition) at 10uM” value was -2.26%.
With `Cc1c(CCC(=O)O)c(=O)oc2cc(OCc3ccccc3Br)ccc12` the “hERG current change (%, negative = inhibition) at 10uM” value was 15.5%.
For `COC(=O)c1cc(OC)c(OC)cc1NC(=O)c1cc(C(C)(C)C)oc1C`, the “hERG current change (%, negative = inhibition) at 10uM” value was 5.71%.
`O=C(NC1CCN(Cc2ccccc2)CC1)c1c(Cl)cccc1Cl` was tested, and the “hERG current change (%, negative = inhibition) at 10uM” value was -10.7%.
In the case of `Cc1cc2ncn(N)c2cc1C`, the “hERG current change (%, negative = inhibition) at 10uM” value is reported as -9.37%.
With `Cc1ccsc1C(=O)NC1CCCN(Cc2ccc(Cl)cc2)C1` (stereo not drawn) the “hERG current change (%, negative = inhibition) at 10uM” value was -56.2%.
In the case of `CCc1cccc2c1NC1(CCCC1)CC2C.Cl` (stereo not drawn), the “hERG current change (%, negative = inhibition) at 10uM” value is reported as 12.2%.
For `Cc1ccc2c(c1)C(c1ccncc1)=NNC(c1ccccc1)=N2`, the “hERG current change (%, negative = inhibition) at 10uM” value was 11.6%.
With `COC(=O)c1ccc(-c2ccco2)n1Cc1ccccc1Cl` the “hERG current change (%, negative = inhibition) at 10uM” value was -1.48%.
`CCOC(=O)c1nnc(-c2ccc(C)cc2)nc1Oc1ccc(Cl)cc1Cl` was tested, and the “hERG current change (%, negative = inhibition) at 10uM” value was 11%.
`O=C(CNC(c1ccccc1)c1ccccc1)Nc1ccc(F)cc1` was tested, and the “hERG current change (%, negative = inhibition) at 10uM” value was -11.3%.
`c1ccc(COC2CCCN(Cc3nc(-c4cnccn4)no3)C2)nc1` (stereo not drawn) was tested, and the “hERG current change (%, negative = inhibition) at 10uM” value was 10.5%.
With `COCCN(C(=O)c1cc(OC)c(OC)c(OC)c1)c1c(N)n(Cc2ccccc2)c(=O)[nH]c1=O` the “hERG current change (%, negative = inhibition) at 10uM” value was 19.8%.
In the case of `Cc1nc2c(cc(Oc3ccc(S(=O)(=O)N4CCOCC4)cn3)c3ccsc32)s1`, the “hERG current change (%, negative = inhibition) at 10uM” value is reported as 4.7%.
`Nc1nc(CN2CCC(Cc3ccccc3)CC2)nc(Nc2ccccc2)n1` was tested, and the “hERG current change (%, negative = inhibition) at 10uM” value was -82%.
In the case of `Cc1ccccc1/C=N/N1CCN(c2ccccc2)CC1`, the “hERG current change (%, negative = inhibition) at 10uM” value is reported as -5.16%.
`CCNC(=O)c1ccccc1NC(=O)c1cccc(S(=O)(=O)N2CCC(C)CC2)c1` was tested, and the “hERG current change (%, negative = inhibition) at 10uM” value was -55.4%.
In the case of `CCOC(=O)C1(CCCc2ccccc2)CCN(C(=O)c2cc(C)nn2CC)CC1`, the “hERG current change (%, negative = inhibition) at 10uM” value is reported as -57.8%.
`Cc1ccc(S(=O)(=O)Nc2cc(=O)[nH]c(SCc3ccccc3Cl)n2)cc1` was tested, and the “hERG current change (%, negative = inhibition) at 10uM” value was 12.4%.
In the case of `Cc1ccc(C(=O)Oc2ccc(Br)cc2C(=S)N2CCOCC2)cc1`, the “hERG current change (%, negative = inhibition) at 10uM” value is reported as 18%.
In the case of `CCN(CC)CCCN(C(=O)c1ccc(F)cc1)c1nc(-c2ccc(OC)cc2)cs1`, the “hERG current change (%, negative = inhibition) at 10uM” value is reported as -75.1%.
In the case of `CCC(C)(C)n1nnnc1C(c1ccc2ncccc2c1)N1CCCC(C)C1` (stereo not drawn), the “hERG current change (%, negative = inhibition) at 10uM” value is reported as -13.6%.
In the case of `CCCn1c(SCC(=O)N2CCN(c3ccc(OC)cc3)CC2)nc2c1c(=O)n(C)c(=O)n2C`, the “hERG current change (%, negative = inhibition) at 10uM” value is reported as -36%.
With `Cc1ccc(C)c(S(=O)(=O)N2CCCOC2CNC(=O)C(=O)NC2CCCC2)c1` (stereo not drawn) the “hERG current change (%, negative = inhibition) at 10uM” value was -11.4%.
With `COc1ccc(NC(=O)C23CC4CC(C2)CC(c2ccccc2)(C4)C3)c(OC)c1` the “hERG current change (%, negative = inhibition) at 10uM” value was 5.59%.
With `COc1ccc([N+](=O)[O-])cc1NS(=O)(=O)Cc1ccccc1` the “hERG current change (%, negative = inhibition) at 10uM” value was 11.1%.
For `Cc1ccc(NC(=S)N2CCN(S(C)(=O)=O)CC2)cc1Cl`, the “hERG current change (%, negative = inhibition) at 10uM” value was 18.5%.
With `O=C(COc1ccccc1Br)Nc1ccc2c(c1)OCCCO2` the “hERG current change (%, negative = inhibition) at 10uM” value was 12.8%.
For `CNC(=O)Cn1c(C)cc(=O)c2cccc(C)c21`, the “hERG current change (%, negative = inhibition) at 10uM” value was -0.558%.
`Cc1cc(NC(=O)c2ccc(S(=O)(=O)N(C)C)cc2)n(-c2ccccn2)n1` was tested, and the “hERG current change (%, negative = inhibition) at 10uM” value was 0.346%.
For `COCCNC(=O)CSCc1c(F)cccc1Cl`, the “hERG current change (%, negative = inhibition) at 10uM” value was 3.73%.
`CC(C)NS(=O)(=O)c1ccc2c3c(cccc13)CC2` was tested, and the “hERG current change (%, negative = inhibition) at 10uM” value was 7.86%.
In the case of `CN(C(=O)c1ccccc1)C1(C)CCS(=O)(=O)C1` (stereo not drawn), the “hERG current change (%, negative = inhibition) at 10uM” value is reported as -4.82%.
With `Cc1c(O)ccc(/C(Cc2ccc3ccccc3n2)=N\N)c1O` the “hERG current change (%, negative = inhibition) at 10uM” value was 8.89%.
In the case of `COc1ccc(C(C)=O)cc1CSc1nnc2c(Cl)cc(Cl)cn12`, the “hERG current change (%, negative = inhibition) at 10uM” value is reported as -11.6%.
In the case of `c1ccc2c(CN3CCCCC3)c[nH]c2c1`, the “hERG current change (%, negative = inhibition) at 10uM” value is reported as -38%.
In the case of `COc1ccc(NC(=O)C2CCCN2C(=O)Oc2ccccc2)cc1` (stereo not drawn), the “hERG current change (%, negative = inhibition) at 10uM” value is reported as 18.7%.
In the case of `CCN(CC)C(=O)CN1CCN(c2ncccn2)CC1.O=C(O)C(=O)O`, the “hERG current change (%, negative = inhibition) at 10uM” value is reported as 0.024%.
With `CCOc1ccc(N(CC(=O)N2CC=C(c3ccccc3)CC2)S(=O)(=O)c2c(C)noc2C)cc1` the “hERG current change (%, negative = inhibition) at 10uM” value was -5.17%.
In the case of `CCOc1nc(C)ccc1-c1noc(-c2ccco2)n1`, the “hERG current change (%, negative = inhibition) at 10uM” value is reported as 9.95%.
For `CS/C(=C\[N+](=O)[O-])Nc1ccc(OC(F)(F)F)cc1`, the “hERG current change (%, negative = inhibition) at 10uM” value was -3.41%.
With `COc1ccc(C2=NOC(CNC(N)=S)C2)cc1` (stereo not drawn) the “hERG current change (%, negative = inhibition) at 10uM” value was 20.8%.
In the case of `CC(C)(C)c1nnc(NC(=O)COc2ccc3c(c2)OCO3)s1`, the “hERG current change (%, negative = inhibition) at 10uM” value is reported as 7.39%.
In the case of `CC1(C)C=C2[C@H]3CC[C@@H]4[C@@]5(C)CCC(=O)C(C)(C)[C@@H]5CC[C@@]4(C)[C@]3(C)CC[C@@]2(C(=O)O)CC1`, the “hERG current change (%, negative = inhibition) at 10uM” value is reported as -1.05%.
In the case of `O=C(Nc1ccnn1C1CCN(CCCc2ccccc2)CC1)c1ccccc1`, the “hERG current change (%, negative = inhibition) at 10uM” value is reported as -80.8%.
`CC1CCC(=C(C#N)c2nc(-c3cc4ccccc4oc3=O)cs2)CC1` (stereo not drawn) was tested, and the “hERG current change (%, negative = inhibition) at 10uM” value was 7.86%.
In the case of `COc1ccc(-c2cc(C)nc3nc(N)nn23)cc1`, the “hERG current change (%, negative = inhibition) at 10uM” value is reported as -0.694%.
`COc1ccc(CCC(=O)Nc2nnc(C(C)(C)C)s2)cc1` was tested, and the “hERG current change (%, negative = inhibition) at 10uM” value was 22.5%.
For `O=C(Nc1ccc(S(=O)(=O)N2CCCCC2c2cccnc2)cc1)c1c(F)cccc1F` (stereo not drawn), the “hERG current change (%, negative = inhibition) at 10uM” value was -4.98%.
In the case of `COC(=O)c1ccc(Oc2coc3cc(OCc4ccc([N+](=O)[O-])cc4)ccc3c2=O)cc1`, the “hERG current change (%, negative = inhibition) at 10uM” value is reported as 10.4%.
With `CC1=C(C(=O)Nc2ccccc2)C(c2ccc3c(c2)OCO3)C2=C(CCCC2=O)N1` (stereo not drawn) the “hERG current change (%, negative = inhibition) at 10uM” value was -14.2%.
In the case of `Cc1ccc(C)c(S(=O)(=O)Nc2ccc(S(=O)(=O)Nc3ncccn3)cc2)c1`, the “hERG current change (%, negative = inhibition) at 10uM” value is reported as -2.43%.
With `CCOC(=O)c1c(C)[nH]c(C(=O)OCC(=O)N(C)C2CCS(=O)(=O)C2)c1C` (stereo not drawn) the “hERG current change (%, negative = inhibition) at 10uM” value was 13.9%.
For `O=C1COc2ccccc2CN1`, the “hERG current change (%, negative = inhibition) at 10uM” value was 3.05%.
With `CCn1c(C)nc2cc(C(=O)NNS(=O)(=O)c3ccccc3F)ccc21` the “hERG current change (%, negative = inhibition) at 10uM” value was 5.94%.
For `Cc1ccc(C(=O)O/N=C(\N)Cc2cccs2)c(Cl)c1`, the “hERG current change (%, negative = inhibition) at 10uM” value was 0.558%.
`CN1CC[n+]2cnc3ccccc3c21.[I-]` was tested, and the “hERG current change (%, negative = inhibition) at 10uM” value was 11.5%.
